Results as given in publication PMC6919601, “Identification of Plasmodium dipeptidyl aminopeptidase allosteric inhibitors by high throughput screening” (PLoS ONE, 2019).
The campaign covered roughly 110,000 compounds. About 230 (0.21%) showed an effect of 50% or more. Some of the results follow.

target: DPAP1 (Plasmodium falciparum, UniProt Q8IIJ9); assay: primary screen, percent inhibition; read by cleavage of a fluorogenic dipeptide substrate; higher = more effect of the substance; parameters: species or system P. falciparum D10 trophozoite lysates; single well
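Also: 30 min substrate incubation versus DMSO and 10 µM JCP410 controls.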

DPAP1, sequence (Q8IIJ9 whole entry, looked up): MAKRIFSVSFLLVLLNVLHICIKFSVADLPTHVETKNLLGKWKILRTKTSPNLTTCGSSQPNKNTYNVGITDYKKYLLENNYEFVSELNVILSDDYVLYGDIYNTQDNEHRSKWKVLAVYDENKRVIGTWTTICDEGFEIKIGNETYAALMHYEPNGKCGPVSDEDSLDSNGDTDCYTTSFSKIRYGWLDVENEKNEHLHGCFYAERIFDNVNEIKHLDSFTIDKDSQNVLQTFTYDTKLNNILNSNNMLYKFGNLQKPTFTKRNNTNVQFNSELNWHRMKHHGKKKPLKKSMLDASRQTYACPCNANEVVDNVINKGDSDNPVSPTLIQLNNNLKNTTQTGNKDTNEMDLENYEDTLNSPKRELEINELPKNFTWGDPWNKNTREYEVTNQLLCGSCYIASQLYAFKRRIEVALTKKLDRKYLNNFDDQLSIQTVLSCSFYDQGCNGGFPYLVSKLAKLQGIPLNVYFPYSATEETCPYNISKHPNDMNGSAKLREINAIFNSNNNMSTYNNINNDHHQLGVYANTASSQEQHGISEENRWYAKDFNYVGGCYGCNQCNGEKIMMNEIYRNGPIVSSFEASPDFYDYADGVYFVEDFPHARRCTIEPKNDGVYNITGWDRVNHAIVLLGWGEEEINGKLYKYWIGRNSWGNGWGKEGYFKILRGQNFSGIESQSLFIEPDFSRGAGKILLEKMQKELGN

Compound | % Inhibition @ 10 uM [%]
COc1ccc(C(=O)c2oc3ccccc3c2NC(=O)CC(C)C)cc1 | 2.31
OCCNc1ncnc2[nH]cnc12 | 2.59
CCNC(=O)c1ccc(-n2nc(C)cc2-c2ccccc2)cc1 | -5.06
COc1ccccc1Nc1ncc(F)c(Nc2ccccc2OC)n1 | -2.2
CC1=C(C(=O)Nc2ccccc2)C(c2ccccc2)C(C#N)=C(SCC(=O)Nc2ccccc2)N1 (stereo not shown) | 2.44
CCN1CCN(CC(O)COC2CC(C)CCC2C(C)C)CC1 (stereo not shown) | -2.37
COc1ccc(-c2nc(C#N)c(N3CCN(C)CC3)o2)cc1 | -5.1
N#CC1=C(N)Oc2[nH]nc(-c3ccc(Cl)c(Cl)c3)c2C1c1cccs1 (stereo not shown) | 1.57
Cc1cccn2c(=O)c3cc(S(=O)(=O)c4ccc(Cl)cc4)c(=N)n(C4CCCC4)c3nc12 | 3.21
CCn1nc(C(=O)Nc2cccc3ccccc23)c(Cl)c1Cl | -4.67
CC1CC(C)CN(CCCNC(=O)Cc2c(C(=O)O)n(C)c3ccccc23)C1 (stereo not shown) | -2.04
CN1CCN(C2CCCCCC2)CC1 | 0.162
CCCCOc1ccc(/C=C2\SC(=O)NC2=O)cc1OC | 5.44
N=C1C[N+](CCc2ccccc2)=NO1 | -0.85
Cc1n[nH]c(C)c1CCCCOc1ccc(F)cc1 | -12.4
O=C(Nc1ccc2nn(-c3cccc(Cl)c3)nc2c1)c1ccco1 | 3.05
CC1CCCCC1NC(=O)c1cc(O)nc2ccc(Br)cc12 (stereo not shown) | -1.79
O=C(Cn1c(=O)c2cccn2c2cccnc21)NCCc1ccc(Cl)cc1 | -7.56
CCCOc1ccc(N2C(=O)CC(N(CC34CC5CC(CC(C5)C3)C4)C(C)=O)C2=O)cc1 (stereo not shown) | 1.93
NS(=O)(=O)c1ccc(CCNC(=O)C(=O)NCC(c2cccnc2)N2CCOCC2)cc1 (stereo not shown) | 1.68
CCCCOc1ccc(/C=C2/C(=O)ON=C2c2ccccc2)cc1 | -4.74
COc1ccc(OC)c(CN(CCN2CCOCC2)C(=O)Nc2cccc(Cl)c2)c1 | 2.01

Compound | % Inhibition @ 10 uM [%]
Nc1nc(COc2ccccc2)nc2sc3c(c12)CCCC3 | 2.29
CCN1C(=O)c2cccc3c(NC(=O)c4cccc([N+](=O)[O-])c4)ccc1c23 | -0.637
CCc1ccccc1NC(=O)c1ccn(C)n1 | 3.9
O=C1C2CCCN2C(c2ccc(Cl)cc2)N1c1ccccn1 (stereo not shown) | 2.9
CCO/C(O)=C1\C(CC)=NC2=C(C(=O)CC(C)(C)C2)C1c1cccc([N+](=O)[O-])c1 (stereo not shown) | 5.54
COc1cc(NC(=O)c2cnn3c(C(F)F)cc(-c4ccc(C)cc4)nc23)cc(OC)c1OC | -12.3
CCOc1ccc(C2CC(c3ccc(Cl)cc3)Nc3nnnn32)cc1OC (stereo not shown) | 0.0842
CCOC(=O)N1CCN(C(=O)c2c(C)nn(-c3ccc(F)cc3)c2-n2cccc2)CC1 | 7.65
CCOC(=O)c1cnc2c(-c3ccc(OC)c(OC)c3)c(C)nn2c1N | -3.48
NC(=O)C1CCN(c2c(-c3ccccc3)c(=O)c2=O)CC1 | -4.68
Cc1cccc(C2CC(=O)NC3=C2C(=O)CCC3)c1 (stereo not shown) | -4.53
O=C1C(Cl)=C(N2CCCCCC2)C(=O)N1c1cccc(Cl)c1 | 2.08
CCCCN(C)C(=O)C1CCN(c2nnc(C)c3c(C)n(-c4ccc(Cl)cc4)nc23)CC1 | 0.535
CN(C)c1ccc(/C=C2\C(=O)NC(=S)N(c3cccc(Cl)c3)C2=O)cc1 | -0.267
Cc1cc(=O)n2nc(N3CCC(C(=O)NCC4CCCO4)CC3)sc2n1 (stereo not shown) | 1.38
O=C(NCc1cccnc1)c1ccc(-n2cnc3cccnc32)cc1 | 7.36
CCOc1cccc2cc(C(=O)/C=C/c3ccc(Cl)cc3)c(=O)oc12 | -2.38
Cc1ccc(C(=O)C2C3C4C(=O)C5(c6ccccc6)C2C5C43)cc1 (stereo not shown) | -11.4
COc1ccc(N(CC(=O)N2CCCCC2)S(C)(=O)=O)cc1OC | -0.564
N#Cc1cccc(NC(=O)COc2ccc(Cl)cc2)c1 | -4.86
O=C(CS(=O)(=O)Cc1ccccc1)NC(c1ccccc1)c1ccccc1 | 5.48
CC1CCCC(NC(=O)C2c3ccccc3C(=O)N2Cc2ccccc2Cl)C1C (stereo not shown) | 10.4

Compound | % Inhibition @ 10 uM [%]
Cc1cccc(Cn2ccn(Cc3ccccc3)c(=O)c2=O)c1 | 3.17
CC(=O)Nc1ccc(C2=CSC3=NCCN23)cc1Br | 5.65
COCc1c(C#N)c(O)nc(C)c1[N+](=O)[O-] | -0.902
COc1ccc(OC)c(CN2CCN(Cc3ccc(F)cc3)CC2)c1 | -2.84
COc1ccc2ncc3cnccc3c2c1 | -8.01
CCC(CO)Nc1ncnc2c1cnn2-c1cc(Cl)ccc1C (stereo not shown) | -5.01
Oc1ccccc1-c1cc(-c2ccccc2)nc(Cl)n1 | 4.63
CC(C)(C)c1ccc(C(=O)Nc2ccc(S(=O)(=O)N3CCOCC3)cc2)cc1Br | 0.528
COc1cccc(CN2CCN(Cc3ccccc3OC)CC2)c1 | -3.97
Cc1ccc(C2CC(C(F)(F)F)n3ncc(C(=O)NCc4ccccc4Cl)c3N2)cc1 (stereo not shown) | 10.1
COc1ccc(CN(C(=O)c2ccc(C(C)(C)C)cc2)C2CCS(=O)(=O)C2)cc1 (stereo not shown) | 0.561
CCO/C(O)=C(\C#N)c1nnnn1-c1ccccc1 | 2.7
O=C(CCNC(=O)Cn1cnc2sc3c(c2c1=O)CCCC3)NCc1ccco1 | -4.23
CCOC(=O)C1=C(CN(C)Cc2ccccc2)NC(=O)NC1c1cccc(OC)c1OC (stereo not shown) | -1.3
O=C1c2ccccc2C(=O)N2CC3(c4ccccc4)CN1CC(c1ccccc1)(C2)C3=O | 0.00706
COc1ccc(C2C(C(=O)c3ccc4c(c3)OCCO4)=C(O)C(=O)N2Cc2ccco2)c(OC)c1 (stereo not shown) | 1.64
OC1CCN(Cc2ccccc2Br)CC1 | 4.81
O=C1NC(=S)SC1=C1CCCC1 | 4.68
CN(C)CCCN(C(=O)CN1C(=O)CCC1=O)c1nc2ccc(Br)cc2s1 | -1.6
O=C(C1=C(N2CCOCC2)C(C(=O)c2ccccc2)CCC1)c1ccccc1 (stereo not shown) | -1.65
